From PubChem BioAssay AID624296 (National Center for Advancing Translational Sciences (NCATS), 2012)
Values joined by “and” are separate entries in the source; they are usually repeats but may differ in a detail not shown here. Identical values can stand only once. Screen size: about 350,000 compounds; about 9,900 (2.8%) were called active. The inconclusive results got no clear call from the source; some entries with a clear call stand among them for comparison. The call rests on the fitted dose curve; in most records, active means well fitted activation curve with a large enough effect; inconclusive means small, poorly fitted or top-dose-only effect; inactive means no such curve, though single readings can be large or run the other way. Where the call is inconclusive, the potency comes from a doubtful curve fit.

Test: A quantitative high throughput screen for small molecules that induce DNA re-replication in MCF 10a normal breast cells. Further: nearly all actives have a fitted effect of over 50% in size. On activity, positive = re-replication: % of control where 0% means no effect.
Conditions: MCF 10A DNA re-replication, Hoechst nuclear intensity, 48 h; activity, positive = re-replication: at 46.1 µM (top of the series)
Potency means the concentration at half of the fitted maximal effect; tags describe the fitted curve by direction and shape.

SMILES	activity, positive = re-replication	Potency
O=C(CCNS(=O)(=O)c1ccc(Cl)cc1)N1CCN(Cc2ccccc2)CC1	inactive: -30.4%	
CCCN(CC(=O)Nc1ccccc1C)C(=O)C1CC(=O)N(c2ccc(CC)cc2)C1 (configuration not stated)	inactive: -3.46%	
Cc1ccc(NNC(=S)Nc2ccc(C(C)C)cc2)c(C)c1		active: 7.31 µM
Nc1nc(=S)c2ncn(C3OC(CO)C(O)C3O)c2[nH]1 (configuration not stated)		inconclusive: 8.2 µM [activator, partial curve, poor fit]
Cc1cccc(OC(C)C(=O)Nc2ccccc2C(=O)N2CCCCC2)c1 (configuration not stated)		inconclusive: 14.6 µM [activator, single point]
CCn1cc(CN2CCC(C(=O)Nc3ccc(Oc4ccccc4F)cc3)CC2)c(C)n1		active: 20.6 µM
Cc1cc(N2CCCC2)nc2ccccc12		inconclusive: 20.6 µM [activator, single point]
CCCCCCN1N=C(C)C(C(=O)c2ccc(Cl)cc2)C1=O (configuration not stated)		inconclusive: 7.31 µM [activator, partial curve, poor fit]
COCCNC(=S)N/N=C/c1ccc(-c2ccc([N+](=O)[O-])cc2)o1		inconclusive: 29.1 µM [activator, single point]
Cc1onc(-c2c(Cl)cccc2Cl)c1COC(=O)c1ccc(Cl)cc1		inconclusive: 8.2 µM [activator, partial curve]
CCc1ccc(NC(=O)c2ccc(S(=O)(=O)NCc3cccnc3)cc2)cc1		inconclusive: 0.291 µM [activator, full curve, poor fit]
CCC(CC)C(=O)Nc1cccc(/C(C)=N\NC(=O)c2ccc(C)s2)c1	inactive: 25.7%	
COc1ccc([C@]2(C(C)C)ON(c3ccccc3C(F)(F)F)C2=O)cc1	inactive: 6.83%	
CCOc1ncccc1C(=O)Nc1ccc(Cl)c(S(=O)(=O)N2CCCC2)c1	inactive: 2.63%	
COc1ccc(C(CC(=O)O)NC(=O)Nc2ccccc2)cc1OC (configuration not stated)	inactive: -5.21%	
COc1ccc(N=CC2=C(O)CC(c3ccccc3)CC2=O)c(OC)c1 (configuration not stated)		inconclusive: 25.9 µM [activator, partial curve, poor fit]
CC(C)C[C@H](NC(=O)c1[nH]cnc1C(=O)N[C@@H](C)c1ccccc1)C(=O)OC(C)(C)C		inconclusive: 29.1 µM [activator, single point]
O=C(NCc1ccc2c(c1)OCO2)C1CCCN(C(=O)c2ccc(Cl)cc2)C1 (configuration not stated)		inconclusive: 16.4 µM [activator, partial curve, poor fit]
CCCc1nnc(NC(=O)c2nc(S(=O)(=O)Cc3ccc(C)cc3)ncc2Cl)s1		active: 3.66 µM
C=CCn1c(Cc2cccs2)nnc1SCC(=O)c1ccc2ccccc2c1		active: 11.6 µM
O=C(O)c1ccc2[nH]c3c(c2c1)CSCC3	inactive: -4.55%	
CCOC(=O)c1sc(=NC(=O)/C=C/c2cccs2)n(C)c1C		inconclusive: 11.6 µM [activator, partial curve]
O=[N+]([O-])c1ccc(NN=Cc2cccc3ccccc23)cc1		inconclusive: 25.9 µM [activator, single point]

SMILES	activity, positive = re-replication	Potency
CSCCC(NS(=O)(=O)c1ccccc1)C(=O)Nc1nccs1 (configuration not stated)	inactive: -14.1%	
OC(CNCc1ccc(Cl)cc1)(c1ccccc1)c1ccc(F)cc1 (configuration not stated)		inconclusive: 11.2 µM [activator, single point]
CCOC(=O)c1ccccc1N/C=C/C(=O)c1cccs1		inconclusive: 20.6 µM [activator, single point]
CCC(=O)NCCCNc1nc2c(C)cccc2cc1C#N	inactive: -1.34%	
CCCCn1c(=N)c(S(=O)(=O)c2ccc(Br)cc2)cc2c(=O)n3cccc(C)c3nc21	inactive: 16.5%	
Cc1cc(C)cc(CN2C(=O)NC3(CCCCCC3)C2=O)c1		inconclusive: 32.6 µM [activator, partial curve, poor fit]
Cc1cccc(C)c1OCc1cc(C(=O)N2CCN(Cc3nccn3C)CC2)no1		inconclusive: 29.1 µM [activator, single point]
C=CCNC(=S)NNc1nc2c(c(=O)[nH]1)C1(CCCCC1)Cc1ccccc1-2		active: 23.1 µM
O=C1OCCN1C(=O)[C@H]1[C@H](c2ccccc2)C(c2ccccc2)=NN1c1ccc(Br)cc1		inconclusive: 2.06 µM [activator, full curve, poor fit]
CCCc1cc(N2CCCC(C(=O)NCc3ccc4c(c3)OCO4)C2)n2ncnc2n1 (configuration not stated)	inactive: 15%	
COc1ccccc1OCC(=O)Nc1cc(C(F)(F)F)ccc1-n1cncn1	inactive: 10.4%	
COc1ccc(-c2cc(C(F)(F)F)nc(N3CCOCC3)n2)cc1OC		inconclusive: 29.1 µM [activator, single point]
CCOC(=O)c1c(NC(=O)CNC2CCCCC2)sc(C)c1C		inconclusive: 8.2 µM [activator, partial curve]
O=C1NC[C@H](Cc2ccccc2)N(C[C@H]2CCCN2C[C@H](Cc2ccccc2)N2C[C@H](Cc3ccc(O)cc3)N(CC3CCCCCC3)C(=O)C2=O)C1=O		inconclusive: 16.4 µM [activator, single point]
COCc1c(C(=O)OCC(=O)NCCc2ccc(S(N)(=O)=O)cc2)oc2ccccc12	inactive: -0.181%	
COc1cc(OC)cc(C(=O)NC(=S)Nc2cc3oc4ccccc4c3cc2OC)c1		inconclusive: 4.61 µM [activator, single point]
Cc1ccc(-c2n[nH]c(=O)c3ccccc23)cc1S(N)(=O)=O		inconclusive: 6.51 µM [activator, partial curve, poor fit]
CCN1C/C(=C/c2ccc(N3CCOCC3)cc2)C(=O)/C(=C/c2ccc(N3CCOCC3)cc2)C1		active: 23.1 µM
CCCC(=O)Nc1nc2c(OC)ccc(OC)c2s1	inactive: -0.499%	
COc1ccc(CCNC(=O)CCS(=O)(=O)c2ccc3c(c2)NC(=O)CO3)cc1OC		inconclusive: 7.31 µM [activator, partial curve, poor fit]
CCOC(=O)c1cccc(-c2c(-c3ccccc3)ncc3cc(OC)c(OC)cc23)c1		inconclusive: 29.1 µM [activator, single point]
CC(=O)c1c(O)c(C)c(O)c2c1OC1=CC(=O)C(C(C)=O)C(=O)[C@@]12C (some centres not stated)		active: 3.66 µM
O=[N+]([O-])CC1(n2nc3ccccc3n2)CCCCC1		inconclusive: 0.103 µM [activator, full curve, poor fit]

SMILES	activity, positive = re-replication	Potency
CCN(CC)c1ccc(NC(=O)c2cccc(OC)c2)c(C)c1		inconclusive: 23.1 µM [activator, single point]
O=C(Nc1ccc(F)c(F)c1)C1CCCN(S(=O)(=O)c2cccc3nonc23)C1 (configuration not stated)		inconclusive: 10.3 µM [activator, partial curve]
Nc1nc(N)c2c(ccc3nccc32)[nH]1		inconclusive: 23.1 µM [activator, partial curve, poor fit]
O=c1cc(N2CCCCC2)c(-c2ccccc2)nn1Cc1ccccc1		inconclusive: 20.6 µM [activator, single point]
CCN(CC)CCCCN1c2ccccc2Sc2ccccc21		active: 25.9 µM
O=C(O)c1ccc(CN(c2ccccc2)S(=O)(=O)c2ccccc2)cc1		inconclusive: 0.0041 µM [activator, full curve, poor fit]
CC(=O)OCCCNc1cc(Sc2ccc(Cl)cc2)c2nonc2c1[N+](=O)[O-]		active: 4.61 µM
O=C1OC(Nc2ccc3c(c2)OCO3)c2ccccc21 (configuration not stated)		inconclusive: 14.1 µM [activator, single point]
Cc1ccc(N=Nc2ccc(O)c3ncccc23)cc1		inconclusive: 20.6 µM [activator, single point]
CCOc1ccc2[nH]cc(C(=O)NCc3ccc(F)cc3)c(=O)c2c1		inconclusive: 29.1 µM [activator, single point]
CC1CC(C)CN(CCCNC(=O)c2c(O)nc3ccccn3c2=O)C1 (configuration not stated)		inconclusive: 0.103 µM [activator, full curve, poor fit]
CCC(CC)c1nn2c(N)c(/C=C3\C=Nc4ccccc43)c(=O)nc2s1		active: 3.26 µM
Cc1ccc(Nc2nnc(SCC(=O)c3ccc(O)cc3O)s2)cc1		inconclusive: 23.1 µM [activator, single point]
COc1ccccc1NC(=O)c1ccc(Br)c(S(=O)(=O)N2CCCC2)c1		inconclusive: 13 µM [activator, partial curve, poor fit]
Fc1ccccc1NC(=S)N1CCN(Cc2ccc3c(c2)OCO3)CC1		inconclusive: 25.9 µM [activator, single point]
CC(C)c1ccc(OCCCCN2CCCCC2)cc1		inconclusive: 2.31 µM [activator, full curve, poor fit]
Cc1ccc(-n2nnnc2Sc2ccc(S(=O)(=O)NCCN(C)C)cc2[N+](=O)[O-])cc1		inconclusive: 3.66 µM [activator, full curve, poor fit]
CSc1nc(-c2ccccc2)nn1C(=O)c1ccccc1		inconclusive: 29.1 µM [activator, single point]
CCN(C(=O)Cc1c(C(=O)O)[nH]c2ccccc12)c1ccc(OC)cc1		inconclusive: 6.51 µM [activator, single point]
CCCCCn1c(=NC(=O)c2ccco2)c(C(=O)OCC)cc2c(=O)n3ccccc3nc21		inactive and inconclusive: 13 µM [activator, partial curve]
CCOC(=O)c1cnc2ccc(F)cc2c1Nc1ccc2c(c1)OCCO2		inconclusive: 25.9 µM [activator, single point]
